Data: patent publication US20140093592A1, “[…] THE TREATMENT OF TREATMENT-[…] TREATMENT-RESISTANT DEPRESSION” (Janssen Pharmaceutica NV, priority 2012, published 2014)

System: adult subjects with treatment-resistant depression (TRD)
Test: Phase 2a clinical study of i.v. esketamine in TRD: MADRS total score
Conditions: for Diff. of LS Means (SE) minus placebo, change in MADRS total score: day 1 to day 2

SMILES: CN[C@]1(c2ccccc2Cl)CCCCC1=O.Cl [Esketamine, (S)-2-(2-chlorophenyl)-2-(methylamino)cyclohexanone hydrochloride]
- MADRS total score, Mean (SD) (0.2 mg/kg i.v., Baseline (Day 1 Predose)): 33.1 (3.55)
- MADRS total score, Mean (SD) (0.2 mg/kg i.v., Day 2): 16.3 (8.87)
- Diff. of LS Means (SE) minus placebo, change in MADRS total score (0.2 mg/kg i.v.): −12.9 (3.76)
- MADRS total score, Mean (SE) (0.20 mg/kg, Day 1 (2 Hour)): 20.44 (2.973)
- MADRS total score, Mean (SE) (0.20 mg/kg, Day 1 (4 Hour)): 16.00 (2.901)
- MADRS total score, Mean (SE) (0.20 mg/kg, Day 2): 16.33 (2.958)
- MADRS total score, Mean (SE) (0.20 mg/kg, Day 3): 16.78 (3.455)
- MADRS total score, Mean (SD) (0.4 mg/kg i.v., Baseline (Day 1 Predose)): 33.7 (5.82)
- MADRS total score, Mean (SD) (0.4 mg/kg i.v., Day 2): 15.9 (9.12)
- Diff. of LS Means (SE) minus placebo, change in MADRS total score (0.4 mg/kg i.v.): −13.1 (3.64)
- MADRS total score, Mean (SE) (0.40 mg/kg, Day 1 (2 Hour)): 14.91 (2.380)
- MADRS total score, Mean (SE) (0.40 mg/kg, Day 1 (4 Hour)): 15.73 (2.461)
- MADRS total score, Mean (SE) (0.40 mg/kg, Day 2): 15.91 (2.748)
- MADRS total score, Mean (SE) (0.40 mg/kg, Day 3): 19.45 (3.326)
- Remission rate (0.4 mg/kg, by day 7 (DB phase)): 27.3%
- Onset of antidepressant effects (MADRS) after the infusion (both doses, earliest time point measured): ≤ 2 h
- Remitters (MADRS score less than or equal to 10) (day 7, 14 of 29 subjects, all doses): 48.3%
